Laboratory results reported in the BET-seq Pho4 binding data (Le et al. 2018).
Some of the results follow. These are noisy estimates, calculated here from bound and input reads.

Each sequence was assayed against T1, Pho4 (S. cerevisiae) (UniProt P07270) (assay: relative binding free energy (BET-seq); higher = weaker binding). Conditions: reference: library average.
T1 sequence: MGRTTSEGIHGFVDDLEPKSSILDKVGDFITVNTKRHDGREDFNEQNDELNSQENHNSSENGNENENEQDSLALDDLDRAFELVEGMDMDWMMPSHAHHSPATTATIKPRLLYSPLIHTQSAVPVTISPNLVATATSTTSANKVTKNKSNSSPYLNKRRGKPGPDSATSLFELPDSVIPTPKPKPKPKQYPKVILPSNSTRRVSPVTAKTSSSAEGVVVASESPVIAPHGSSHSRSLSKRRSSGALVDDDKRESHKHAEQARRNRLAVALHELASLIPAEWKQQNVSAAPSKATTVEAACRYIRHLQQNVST

With TTATTCACGTGTTTCT as the sequence, how does the “relative binding free energy” value read?
The value was 0.24 kcal/mol.

For GGAGTCACGTGGGTAA, which “relative binding free energy” value is on record?
The value was -0.06 kcal/mol.

Which “relative binding free energy” value does the source give for ATTTACACGTGGTTTG here?
The value was 0.16 kcal/mol.

TGGGTCACGTGTTTCG was tested. Which “relative binding free energy” value did it give?
The value was 0.21 kcal/mol.

For GTTGGCACGTGTGACG, which “relative binding free energy” value is on record?
Its value is 0 kcal/mol.

GGGATCACGTGGACTG was tested. Which “relative binding free energy” value did it give?
The value was 0.32 kcal/mol.

How did the “relative binding free energy” value turn out when TTCTACACGTGGGTAT was run?
The value was 0.11 kcal/mol.

TGAGACACGTGCTTGT was tested. Which “relative binding free energy” value did it give?
The value was 0 kcal/mol.

For TGTTTCACGTGTTCGA, which “relative binding free energy” value is on record?
The value was 0.29 kcal/mol.

How did the “relative binding free energy” value turn out when GTTGGCACGTGTAGAT was run?
Its value is 0.08 kcal/mol.

With AGGGACACGTGTGTTG as the sequence, how does the “relative binding free energy” value read?
Its value is -0.03 kcal/mol.

TCTATCACGTGAGGTG was tested. Which “relative binding free energy” value did it give?
Its value is 0.19 kcal/mol.

ACGGACACGTGTTGGT was tested. Which “relative binding free energy” value did it give?
The value was 0.11 kcal/mol.

With ATTCTCACGTGGGGGA as the sequence, how does the “relative binding free energy” value read?
The value was 0.19 kcal/mol.

With GGTGTCACGTGGGTGC as the sequence, how does the “relative binding free energy” value read?
The value was 0 kcal/mol.

For TTCTGCACGTGTGGCG, which “relative binding free energy” value is on record?
The value was 0.05 kcal/mol.

With GGCATCACGTGGTTAT as the sequence, how does the “relative binding free energy” value read?
Its value is 0.28 kcal/mol.

Which “relative binding free energy” value does the source give for ATTCACACGTGGGGTT here?
Its value is -0.05 kcal/mol.

Which “relative binding free energy” value does the source give for TTACACACGTGAAGGT here?
The value was 0.24 kcal/mol.

TAAGGCACGTGTGGGT was tested. Which “relative binding free energy” value did it give?
Its value is 0.02 kcal/mol.

With TGTACCACGTGGATTT as the sequence, how does the “relative binding free energy” value read?
Its value is -0.04 kcal/mol.

Which “relative binding free energy” value does the source give for ATATTCACGTGCGGTA here?
Its value is 0.19 kcal/mol.

GGGCGCACGTGTCGGC was tested. Which “relative binding free energy” value did it give?
Its value is -0.02 kcal/mol.

Which “relative binding free energy” value does the source give for ATGATCACGTGCGTGG here?
Its value is 0.1 kcal/mol.

Which “relative binding free energy” value does the source give for AATGTCACGTGAGGGG here?
Its value is 0.33 kcal/mol.

How did the “relative binding free energy” value turn out when AGGGGCACGTGGCCGT was run?
The value was -0.2 kcal/mol.

ATGGTCACGTGTTCAT was tested. Which “relative binding free energy” value did it give?
The value was -0.02 kcal/mol.

TCGCTCACGTGATGTT was tested. Which “relative binding free energy” value did it give?
The value was 0.3 kcal/mol.

For TGCGGCACGTGGGGTT, which “relative binding free energy” value is on record?
The value was -0.16 kcal/mol.

Which “relative binding free energy” value does the source give for TAGGGCACGTGTGGTG here?
Its value is -0.06 kcal/mol.

How did the “relative binding free energy” value turn out when TGGGCCACGTGTCCGG was run?
The value was -0.06 kcal/mol.

For GGCTGCACGTGACGTG, which “relative binding free energy” value is on record?
The value was 0.25 kcal/mol.

For GGGTTCACGTGATACT, which “relative binding free energy” value is on record?
Its value is 0.39 kcal/mol.

With GTACTCACGTGGAGGT as the sequence, how does the “relative binding free energy” value read?
The value was 0.18 kcal/mol.

Which “relative binding free energy” value does the source give for TGTCGCACGTGGTAGG here?
The value was -0.02 kcal/mol.

How did the “relative binding free energy” value turn out when ATTGGCACGTGTCGTT was run?
The value was -0.06 kcal/mol.

For CGTGTCACGTGCGGGA, which “relative binding free energy” value is on record?
The value was -0.16 kcal/mol.

AATTACACGTGGTTGC was tested. Which “relative binding free energy” value did it give?
Its value is 0.16 kcal/mol.

With GGTTACACGTGGTTCT as the sequence, how does the “relative binding free energy” value read?
Its value is 0.14 kcal/mol.

TTGACCACGTGGGCGG was tested. Which “relative binding free energy” value did it give?
The value was -0.12 kcal/mol.

For CAAGGCACGTGTTGAT, which “relative binding free energy” value is on record?
Its value is 0.02 kcal/mol.

Which “relative binding free energy” value does the source give for GGGTGCACGTGTATTT here?
Its value is 0.11 kcal/mol.

Which “relative binding free energy” value does the source give for AGTGTCACGTGCATGT here?
Its value is -0.14 kcal/mol.

CAGGGCACGTGCTAGG was tested. Which “relative binding free energy” value did it give?
Its value is -0.24 kcal/mol.

For CGAAGCACGTGTGGTT, which “relative binding free energy” value is on record?
Its value is -0.07 kcal/mol.

ACTTGCACGTGTGAAG was tested. Which “relative binding free energy” value did it give?
The value was 0.15 kcal/mol.

For GGAAGCACGTGTAGTT, which “relative binding free energy” value is on record?
The value was -0.21 kcal/mol.

For ATGAGCACGTGGCGTA, which “relative binding free energy” value is on record?
The value was -0.17 kcal/mol.

With AGTATCACGTGAACGT as the sequence, how does the “relative binding free energy” value read?
The value was 0.24 kcal/mol.

For CAGGACACGTGTTGGA, which “relative binding free energy” value is on record?
Its value is 0.1 kcal/mol.

TTTTTCACGTGCGAGC was tested. Which “relative binding free energy” value did it give?
Its value is 0.38 kcal/mol.

Which “relative binding free energy” value does the source give for ATGTACACGTGTTAGT here?
Its value is 0 kcal/mol.

How did the “relative binding free energy” value turn out when TGTTTCACGTGTGCTC was run?
The value was 0.38 kcal/mol.

For TATGTCACGTGGTTGA, which “relative binding free energy” value is on record?
The value was 0.06 kcal/mol.

Which “relative binding free energy” value does the source give for GTTGTCACGTGGAGAC here?
Its value is 0.26 kcal/mol.

How did the “relative binding free energy” value turn out when TTGGACACGTGGGGAA was run?
The value was -0.02 kcal/mol.

How did the “relative binding free energy” value turn out when TCTGGCACGTGAGGGC was run?
Its value is 0.15 kcal/mol.

For ATTAGCACGTGTATTG, which “relative binding free energy” value is on record?
The value was -0.2 kcal/mol.

Which “relative binding free energy” value does the source give for GTGTGCACGTGGTTAT here?
The value was -0.03 kcal/mol.

How did the “relative binding free energy” value turn out when AGTTGCACGTGGATTT was run?
The value was 0.14 kcal/mol.

Which “relative binding free energy” value does the source give for CATTTCACGTGCTGGG here?
The value was 0.24 kcal/mol.

CGAGACACGTGATGGG was tested. Which “relative binding free energy” value did it give?
The value was 0.04 kcal/mol.

TGGCGCACGTGCTCGG was tested. Which “relative binding free energy” value did it give?
Its value is -0.16 kcal/mol.

ATGTTCACGTGTGGTA was tested. Which “relative binding free energy” value did it give?
Its value is 0.23 kcal/mol.

Which “relative binding free energy” value does the source give for TTTGGCACGTGATCAT here?
The value was -0.1 kcal/mol.

How did the “relative binding free energy” value turn out when ATGAGCACGTGTGGCT was run?
The value was -0.03 kcal/mol.

How did the “relative binding free energy” value turn out when TATGACACGTGGGTTA was run?
Its value is -0.04 kcal/mol.

How did the “relative binding free energy” value turn out when TTGAGCACGTGTTAAT was run?
Its value is -0.01 kcal/mol.

For TAGAACACGTGTTGTG, which “relative binding free energy” value is on record?
The value was 0.08 kcal/mol.

Which “relative binding free energy” value does the source give for TTTACCACGTGGGGTG here?
The value was -0.32 kcal/mol.

How did the “relative binding free energy” value turn out when AACTGCACGTGGGAGG was run?
The value was -0.15 kcal/mol.

How did the “relative binding free energy” value turn out when TTGTTCACGTGTGCTT was run?
Its value is 0.26 kcal/mol.

Which “relative binding free energy” value does the source give for AAGGGCACGTGCGTAT here?
Its value is -0.09 kcal/mol.

How did the “relative binding free energy” value turn out when GGTGTCACGTGGCGGC was run?
The value was 0.2 kcal/mol.

With ACAGGCACGTGTGTAT as the sequence, how does the “relative binding free energy” value read?
The value was 0.05 kcal/mol.

With TTGGTCACGTGCGGAA as the sequence, how does the “relative binding free energy” value read?
The value was -0.03 kcal/mol.

TTTGGCACGTGTACGA was tested. Which “relative binding free energy” value did it give?
Its value is 0 kcal/mol.

For GAAGTCACGTGAGTGG, which “relative binding free energy” value is on record?
Its value is 0.24 kcal/mol.

With AAGGGCACGTGTGTGC as the sequence, how does the “relative binding free energy” value read?
The value was -0.11 kcal/mol.

Which “relative binding free energy” value does the source give for CGGGGCACGTGGGCTG here?
Its value is -0.31 kcal/mol.

With CGAGGCACGTGGTATA as the sequence, how does the “relative binding free energy” value read?
Its value is -0.2 kcal/mol.

TCTAGCACGTGGTCGG was tested. Which “relative binding free energy” value did it give?
The value was -0.19 kcal/mol.

Which “relative binding free energy” value does the source give for TCGAGCACGTGGAGGG here?
Its value is -0.06 kcal/mol.

TGAAGCACGTGGTCGT was tested. Which “relative binding free energy” value did it give?
Its value is 0.01 kcal/mol.

For ATCGGCACGTGTATGG, which “relative binding free energy” value is on record?
Its value is -0.14 kcal/mol.

For GCGGGCACGTGAAGTA, which “relative binding free energy” value is on record?
The value was 0.24 kcal/mol.

For CGTGTCACGTGAGAAG, which “relative binding free energy” value is on record?
Its value is 0.23 kcal/mol.

AGTGGCACGTGAGAGG was tested. Which “relative binding free energy” value did it give?
Its value is 0.13 kcal/mol.

With CTGATCACGTGTCGGG as the sequence, how does the “relative binding free energy” value read?
The value was 0.03 kcal/mol.

With TGGGGCACGTGTTGTC as the sequence, how does the “relative binding free energy” value read?
Its value is -0.03 kcal/mol.

Which “relative binding free energy” value does the source give for CGCTTCACGTGGGGGA here?
The value was 0.13 kcal/mol.

Which “relative binding free energy” value does the source give for AAGTTCACGTGGTGGG here?
Its value is 0.29 kcal/mol.

AGAATCACGTGTTTAT was tested. Which “relative binding free energy” value did it give?
The value was 0.07 kcal/mol.

CTATACACGTGGGTGG was tested. Which “relative binding free energy” value did it give?
The value was -0.13 kcal/mol.

For GAAGTCACGTGGCAGT, which “relative binding free energy” value is on record?
Its value is 0.19 kcal/mol.

TTTTGCACGTGAATTG was tested. Which “relative binding free energy” value did it give?
The value was 0.23 kcal/mol.

With CTTTTCACGTGGAGGC as the sequence, how does the “relative binding free energy” value read?
The value was 0.31 kcal/mol.

TTGATCACGTGGGTGG was tested. Which “relative binding free energy” value did it give?
The value was 0.01 kcal/mol.

GTTTGCACGTGCCTGT was tested. Which “relative binding free energy” value did it give?
Its value is 0.09 kcal/mol.

For GGGGGCACGTGAGACG, which “relative binding free energy” value is on record?
The value was 0.1 kcal/mol.

Which “relative binding free energy” value does the source give for AAGTTCACGTGTTCAG here?
Its value is 0.33 kcal/mol.

TTTGACACGTGTGTAT was tested. Which “relative binding free energy” value did it give?
Its value is 0.04 kcal/mol.

Which “relative binding free energy” value does the source give for ATCGTCACGTGGTATT here?
The value was -0.08 kcal/mol.

With ATTTACACGTGTGATT as the sequence, how does the “relative binding free energy” value read?
Its value is 0.1 kcal/mol.

Which “relative binding free energy” value does the source give for TTGGACACGTGTGGTG here?
Its value is 0.08 kcal/mol.

With CATATCACGTGTAGTT as the sequence, how does the “relative binding free energy” value read?
The value was 0.09 kcal/mol.

Which “relative binding free energy” value does the source give for AGATGCACGTGGAAAT here?
Its value is 0.01 kcal/mol.

Which “relative binding free energy” value does the source give for TTATTCACGTGAGTAA here?
Its value is 0.39 kcal/mol.

TGGTGCACGTGTAAGC was tested. Which “relative binding free energy” value did it give?
The value was 0.06 kcal/mol.

For AGGACCACGTGCGTGG, which “relative binding free energy” value is on record?
Its value is -0.13 kcal/mol.

Which “relative binding free energy” value does the source give for TATTACACGTGATGCG here?
Its value is 0.01 kcal/mol.

For ATTTGCACGTGGCGGT, which “relative binding free energy” value is on record?
The value was -0.09 kcal/mol.

For AACGGCACGTGGTGAG, which “relative binding free energy” value is on record?
Its value is -0.09 kcal/mol.

How did the “relative binding free energy” value turn out when AGTGACACGTGTGACG was run?
The value was 0.16 kcal/mol.

CTGGACACGTGTTGGG was tested. Which “relative binding free energy” value did it give?
The value was 0.03 kcal/mol.
